Source: PubChem BioAssay AID652104 (National Center for Advancing Translational Sciences (NCATS), 2013)
Screen size: about 410,000 compounds; about 7,200 (1.8%) were called active. This list was built around the results that the source calls inconclusive (neither active nor inactive); the mix of calls is not that of the screen. Calls follow the shape of the dose curve; as a rule, active = well fitted activation curve with a large enough effect; inconclusive = small, poorly fitted or top-dose-only effect, or another doubt; inactive = no such curve, though single readings can be large or run the other way. No potency is given beside an inconclusive call; the fits are too rough.

test: qHTS of TDP-43 Inhibitors; details: TDP-43 expressing yeast growth rescue, BacTiter-Glo, 24 h; growth rescue (activation): at 46.1 µM (top of the series) unless noted; also: nearly all actives have a fitted effect of over 50% in size; as to growth rescue (activation): % of control where 0% means no effect
Procedure, shortened: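 In this qHTS, compounds that restore growth of yeast expressing TDP-43 appear as activators. Cells (OD600=0.02, galactose medium, raffinose-pregrown) are incubated with compound 24 hr at 30 deg C and growth is quantified by BacTiter-Glo.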
Potency is read from the fitted curve at half-maximal effect; tags tell the direction and shape of the fitted curve.

SMILES | Potency | growth rescue (activation)
COCCCNC(=O)c1cccc2c(-c3ccnn3C)coc12 | inconclusive [activator, single point] | –
CCCC(C)C(=O)Nc1nnc(CCc2ccccc2)s1 (centres undefined) | inconclusive [activator, single point] | –
Cc1nc2ccccc2nc1Nc1cccc(Cl)c1 | active: 12.6 µM | –
CN(C)C(=O)C[C@@H]1CC[C@@H](NC(=O)C2CCC2)[C@@H](CO)O1 | inconclusive [activator, single point] | –
Cc1[nH]n(-c2ccccc2)c(=O)c1/C=N/NC(=O)c1ccccc1F | inconclusive [activator, single point] | –
CCn1c2ccccc2c2nnc(SCC(=O)c3ccccc3)nc21 | inconclusive [activator, single point] | –
CC(=O)n1ccnc1 | inconclusive [activator, partial curve, poor fit] | –
CC(C)c1nc(SCC(=O)N2CCCc3ccccc32)c2c(=O)n(C)c(=O)n(C)c2n1 | inconclusive [activator, single point] | –
CCc1ccc(NC(=S)N(Cc2ccc(Cl)cc2)Cc2ccc(C(=O)O)cc2)cc1 | inconclusive [activator, single point] | –
Fc1ccccc1C1CC(c2ccco2)=Nc2ccccc2S1 (centres undefined) | active: 22.4 µM | –
Cc1c(Cl)c([N+](=O)[O-])nn1Cc1ccc(C(=O)Nc2ccc(Cl)cn2)o1 | inconclusive [activator, single point] | –
CCCC(=O)Nc1nc(-c2ccccc2)c(CC)s1 | inconclusive [activator, partial curve] | –
CCN(CC)c1ncnc2c1cnn2Cc1ccc(C)cc1 | inconclusive [activator, partial curve] | –
COc1ccc(C2=Nc3nc(-c4ccccc4)cn3C(c3ccc(OC)cc3)C2)cc1 (centres undefined) | inconclusive [activator, partial curve] | –
COc1ccc(-c2nnn(CC(=O)NCc3ccc4c(c3)OCO4)n2)cc1OC | – | inactive: -4.59% [at 0.397 µM]
Cn1c(=O)c2cc(C(=O)Nc3cccc(C#N)c3)sc2c2ccccc21 | – | inactive: 22.8%
CCC(=O)c1cc2c(C)cc(=O)oc2c(C)c1OC(C)=O | inconclusive [activator, single point] | –
CCOc1ccccc1NC(=O)Nc1ccsc1C(=O)OC | inconclusive [activator, single point] | –
CCOC(=O)C1=CCC(c2ccccc2)N(S(=O)(=O)c2ccc(C)cc2)[C@H]1CC (some centres undefined) | – | inactive: -5.72%
CC(=O)NC(c1cccc(F)c1)c1nc(-c2ccccc2)cs1 (centres undefined) | inconclusive [activator, partial curve] | –
Cn1c(CSCc2ccc(Cl)c(Cl)c2)n[nH]c1=S | inconclusive [activator, partial curve] | –
S=C(NCCc1ccccc1)N/N=C/c1cccc(Cl)c1Cl | inconclusive [activator, partial curve] | –
CC(C)(C)c1ccc(Cn2cnc(-c3ccc([N+](=O)[O-])cc3)c2)cc1 | active: 31.6 µM | –

SMILES | Potency | growth rescue (activation)
Cc1cccc(NC(=O)C(C)Sc2ncnc3sccc23)c1 (centres undefined) | inconclusive [activator, single point] | –
CCOC(=O)c1cnn(Cc2cccc(Cl)c2)c1C | inconclusive [activator, single point] | –
COC(=O)c1sc2cccc(F)c2c1S(=O)(=O)Nc1cc(C)c(Cl)cc1OC | inconclusive [activator, full curve] | –
CNc1nc(NCc2ccccc2)nc(N)c1[N+](=O)[O-] | inconclusive [activator, full curve] | –
COc1ccc(C2Nc3ccccc3C(=O)N2Cc2ccco2)cc1COc1ccc([N+](=O)[O-])cc1 (centres undefined) | inconclusive [activator, full curve, poor fit] | –
O=C(Nc1ccc2c(c1)OCCO2)c1ccc(Cl)cc1Cl | inconclusive [activator, single point] | –
C=CCNc1nc2c(c(=O)n(C)c(=O)n2C)n1CCCCCC | inconclusive [activator, single point] | –
O=c1oc2ccc(Cl)cc2cc1-c1cn2c(n1)sc1ccccc12 | – | inactive: 3.94%
COc1ccc(Nc2nc(NN)nc(C)c2[N+](=O)[O-])cc1 | inconclusive [activator, partial curve] | –
CCOC(=O)/C=C/C(=O)OCc1csc(CC(=O)Nc2ccccc2C)n1 | inconclusive [activator, partial curve] | –
CC1CCCCC1NC(=O)CN(C)S(=O)(=O)c1cccc2nsnc12 (centres undefined) | inconclusive [activator, partial curve] | –
Cn1ncc(Oc2ccc([N+](=O)[O-])cc2)c(Cl)c1=O | – | inactive: 6.92%
CCNC(=S)N(CCCN(CC)CC)Cc1cc2cc3c(cc2[nH]c1=O)OCO3 | – | inactive: 12.5%
[O-][n+]1c2ccccc2c2n1CCN1CCOC21c1ccc(Cl)cc1 (centres undefined) | inconclusive [activator, single point] | –
Clc1ccccc1-c1nnc(SCc2nc(-c3ccccc3)no2)n1-c1ccccc1 | inconclusive [activator, partial curve, poor fit] | –
Cc1cccc([C@@H]2[C@@H]3C(=O)N(Cc4ccccc4)C(=O)[C@@H]3[C@]3(C)C(=O)N(c4cccc(Cl)c4)C(=O)N23)c1 | inconclusive [activator, full curve, poor fit] | –
COC(=O)[C@@]12CCCCN1[C@H](c1ccc(-c3ccc(F)cc3)c(OC)c1)[C@H]1C(=O)N(C)C(=O)[C@H]12 | – | inactive: 13.5%
O=C(c1cc(-c2cccc(O)c2)on1)N1CCCCCC1 | inconclusive [activator, partial curve] | –
CCc1ccc(NC(=O)CSc2nc3ccccc3nc2N2CCCC2)cc1 | inconclusive [activator, single point] | –
Cc1ccnc2nc(NC(=O)c3ccccc3Cl)nn12 | – | inactive: 8.92%
CC(C)(C)c1ccc(C(=O)NNC(=S)NC(=O)c2cccnc2)cc1 | inconclusive [activator, single point] | –
Cc1cc(NC(=O)COC(=O)c2c(C)nn(-c3ccccc3)c2C)no1 | inconclusive [activator, partial curve] | –
COCCn1c(SCC(=O)Nc2nc(C)c(Cl)cc2Cl)nc2ccccc21 | – | inactive: -1.22%

SMILES | Potency | growth rescue (activation)
O=c1cc(CSc2nnnn2-c2ccccc2)nc2sccn12 | inconclusive [activator, single point] | –
COC(=O)c1scc(-c2ccccc2)c1S(=O)(=O)Nc1ccc(C)c(Cl)c1 | inconclusive [activator, partial curve] | –
O=C(CSc1ncn(-c2ccccc2)n1)c1cccs1 | inconclusive [activator, single point] | –
O=S(=O)(NCc1ccco1)c1ccc(Cl)s1 | inconclusive [activator, single point] | –
Cc1ccc(NCc2nnc(SCC(=O)Nc3ncc(C)s3)n2CC2CCCO2)c(C)c1 (centres undefined) | inconclusive [activator, partial curve] | –
O=C(Nc1ccc(Cl)cc1)c1csc(COCCO)n1 | – | inactive: 19.9%
O=C(COc1ccc(-c2ccccc2)cc1)N/N=C/c1cccnc1 | inconclusive [activator, partial curve] | –
CC(NC(=O)COC(=O)CCc1ccccc1)c1ccccc1 (centres undefined) | inconclusive [activator, partial curve] | –
Clc1cccc(Cc2c(-c3cccc(Br)c3)nc3ccc(Cl)cn23)c1 | inconclusive [activator, partial curve] | –
O=C(Nc1ccc2c(c1)OCCO2)c1cc2sccc2n1Cc1ccc(F)cc1 | inconclusive [activator, partial curve] | –
Cc1ccc2nc(-c3ccc(Br)cc3)cn2c1 | inconclusive [activator, partial curve] | –
CCCC(=O)Nc1nc2ccc3nc(C)sc3c2s1 | inconclusive [activator, partial curve] | –
Cc1noc2ncnc(NCc3ccc(Cl)cc3)c12 | inconclusive [activator, single point] | –
CCCCn1nc2cc(C(=O)NCc3ccc(OC)cc3)ccc2c1OCC | inconclusive [activator, single point] | –
CC(=O)c1ccc(-c2ccc(C(=O)N3CCN(c4ccc(F)cc4)CC3)o2)cc1 | – | inactive: 0%
CCNC(=O)c1cnn(-c2ccccc2)c1-c1ccccc1 | – | inactive: 11.8%
CCOC(=O)c1sc2nc(C)nc(Nc3ccc(OC)cc3)c2c1C | inconclusive [activator, full curve] | –
COc1ccc(NC(=O)CCCn2c(=O)c3sccc3n(Cc3ccccc3C)c2=O)cc1 | – | inactive: -16.5%
CC1CCc2noc(NC(=O)c3ccc([N+](=O)[O-])cc3)c2C1 (centres undefined) | – | inactive: 6.42%
CCC(=O)N1CCc2cc(S(=O)(=O)NCCC(=O)Nc3ccc(C)cc3C)ccc21 | – | inactive: 9.28%
Cc1ccc(NC(=O)CSc2nc3nccnc3c(=O)n2CCc2c[nH]c3ccccc23)cc1C | inconclusive [activator, partial curve, poor fit] | –
C=CCSc1nnc(-c2cc3c(-c4ccccc4)nn(C)c3s2)n1C | active: 20 µM | –
COC(=O)c1ccccc1NC(=O)Cn1c(=O)n(-c2ccc(C)cc2)c(=O)c2ccccc21 | – | inactive: 4.27%
